Source: PubChem BioAssay AID1745845 (National Center for Advancing Translational Sciences (NCATS), 2022)
Among all 360,000 compounds or so, about 2,600 (0.72%) were called active. The inconclusive results got no clear call from the source; some entries with a clear call stand among them for comparison. Calls come from the whole dose curve; as a rule, active = well fitted inhibition curve with a large enough effect; inconclusive = small, poorly fitted or top-dose-only effect; inactive = no such curve, though single readings can be large or run the other way. A potency beside an inconclusive call is a rough fit, not a confirmed value.

Test: Primary qHTS for Inhibitors of ATXN expression; note: nearly all actives have a fitted effect of over 55% in size
Conditions: HEK-293 ATXN2-luciferase reporter, luminescence, 24 h; activity change, negative = inhibition: at 57 µM (top of the series)
Outline: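 qHTS (up to 57 uM final) was run with 24 h compound exposure of reporter cells at 37 °C. Each well was multiplexed: SteadyGlo luminescence measured ATXN2-luciferase expression after a fluorogenic Gly-Phe-AFC viability readout (25 uM final).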
% is set by controls: 0 for no effect and ±100 for the full control effect; potency is the fitted concentration of half-maximal effect; tags give direction and shape of the fitted curve.

| Structure (SMILES) | Potency | activity change, negative = inhibition |
| --- | --- | --- |
| CC(C)(C)c1cc(=O)n(-c2ccccc2)[nH]1 | inconclusive: 3.98 µM [inhibitor, single point] |  |
| Cc1cccc(N2CCN(C(=O)CCNS(=O)(=O)c3ccc4c(c3)CCC(=O)N4)CC2)c1C |  | inactive: -13.6% |
| Cc1ccc(NC(=O)C2(c3ccccc3)CC2(Cl)Cl)cc1C (stereo not given) |  | inactive: 39.9% |
| Cc1cc(=O)[nH]c(CN2CCC(c3ccccc3)CC2)n1 | inconclusive: 0.0053 µM [inhibitor, full curve, poor fit] |  |
| O=C(N/N=C/c1cccnc1)c1ccc2ccccc2c1O |  | inactive: 5.16% |
| O=C(C1CCCN(S(=O)(=O)c2cccc3nsnc23)C1)N1CC=C(c2ccccc2)CC1 (stereo not given) | inconclusive: 28.2 µM [inhibitor, partial curve, poor fit] |  |
| CC(C)CC1C(=O)N(Cc2cn(CCC3OCCO3)nn2)CCS(=O)(=O)N1Cc1ccc(-c2ccccc2)cc1 (stereo not given) | inconclusive: 28.2 µM [inhibitor, single point] |  |
| Cc1cccc2sc(NNC(=O)c3ccc(S(=O)(=O)N4CCCC(C)C4)cc3)nc12 (stereo not given) | inconclusive: 37.7 µM [inhibitor, single point] |  |
| Cc1cc(-c2ccc(C)c(S(=O)(=O)NCC3CCN(Cc4ccc(F)cc4)CC3)c2)on1 | inconclusive: 35.5 µM [inhibitor, single point] |  |
| COc1cc(OC)c(NC(=O)C(=O)CC(=O)c2ccc(C)cc2C)cc1Cl | inconclusive: 31.6 µM [inhibitor, single point] |  |
| CC(=O)NC(C)c1cc(Cl)c2cccnc2c1O (stereo not given) | active: 7.94 µM |  |
| Cc1cc(C)cc(NC(=O)CCCn2c3ccccc3c(=O)c3ccccc32)c1 | inconclusive: 11.2 µM [inhibitor, partial curve] |  |
| CC1(C)N=C(N)N=C(N)N1CCCCc1ccccc1 | inconclusive: 8.91 µM [inhibitor, partial curve, poor fit] |  |
| COc1cnc(-c2ccccc2)nc1Sc1ccccc1 |  | inactive: 10.1% |
| CCN(CC)CCCNC(=O)c1cc2c(=O)[nH]c3ccc(C)cc3c2s1 | inconclusive: 2.51 µM [inhibitor, partial curve, poor fit] |  |
| CN(Cc1ccccc1)CC(O)COc1ccc(CNCc2ccc(Cl)s2)cc1 (stereo not given) | inconclusive: 20 µM [inhibitor, partial curve] |  |
| CC(=O)c1ccc(N2CCN(C(=O)CCCCn3c(=O)[nH]c4ccccc4c3=O)CC2)cc1 |  | inactive: 3.87% |
| O=C(CN(C1CCCCC1)S(=O)(=O)c1ccccc1)NCC1CCCO1 (stereo not given) |  | inactive: -7.86% |
| C(=Cc1c[nH]c2ccccc12)c1nccc2ccccc12 | inconclusive: 39.8 µM [inhibitor, single point] |  |
| Clc1ccc2nc(N3CCNCC3)nc(-c3ccccc3)c2c1 | inconclusive: 22.4 µM [inhibitor, single point] |  |
| COc1ccc(CNC(=O)Nc2nc(C(N)CCc3ccccc3)cs2)cc1 (stereo not given) | inconclusive: 35.5 µM [inhibitor, single point] |  |
| Cc1cc(C)n(CC(O)Cn2c3ccc(Br)cc3c3cc(Br)ccc32)c(=O)n1 (stereo not given) | inconclusive: 25.1 µM [inhibitor, single point] |  |

| Structure (SMILES) | Potency | activity change, negative = inhibition |
| --- | --- | --- |
| CN(C)C(=O)c1cccc(-c2cc(NC=O)c3ncc(-c4ccc(F)c(Cl)c4)n3c2)c1 | inconclusive: 39.8 µM [inhibitor, single point] |  |
| O=C(Nc1nc2ccccc2n1CCN1CCOCC1)c1cn(-c2ccccc2)nc1-c1ccccc1 | inconclusive: 17.8 µM [inhibitor, partial curve] |  |
| COc1ccc(/C=C/C(=O)NC(=S)NNC(=O)c2ccco2)cc1 | inconclusive: 28.2 µM [inhibitor, partial curve, poor fit] |  |
| O=C(CCN1C(=O)C2C3CC(C(Br)C3Br)C2C1=O)OCC(=O)c1cccc([N+](=O)[O-])c1 (stereo not given) |  | inactive: 2.97% |
| CCOc1ccccc1N(CC(=O)NCCSc1ccccc1)S(=O)(=O)c1ccccc1 | inconclusive: 31.6 µM [inhibitor, single point] |  |
| CCOc1[nH]n(-c2ccccc2)c(=O)c1C=Nc1ccc(C)cc1 |  | inactive: 3.46% |
| CC(C)CC(N)c1csc(NC(=O)c2cc(C(C)(C)C)nn2Cc2ccccc2)n1 (stereo not given) | inconclusive: 22.4 µM [inhibitor, single point] |  |
| CC(C)=CCC/C(C)=C/C=N/NC(=O)c1ccc([N+](=O)[O-])cc1 | inconclusive: 39.8 µM [inhibitor, partial curve, poor fit] |  |
| CSC1=N/C(=C/c2ccc(-n3cncn3)cc2)C(=O)N1 | inconclusive: 0.708 µM [inhibitor, partial curve, poor fit] |  |
| COc1ccc(N=CC2=C(O)c3ccccc3C2=O)c(OC)c1 | inconclusive: 15.8 µM [inhibitor, single point] |  |
| CCOC(=O)Cn1c(=NC(=O)c2nc3ccccc3s2)sc2cc(S(N)(=O)=O)ccc21 | inconclusive: 14.1 µM [inhibitor, partial curve, poor fit] |  |
| CC(C)(C)c1cc(C(=O)NNc2cc(C(F)(F)F)ccc2Cl)n(Cc2ccccc2)n1 | inconclusive: 37.7 µM [inhibitor, single point] |  |
| Cc1ccc(NC(=O)Cn2c(=O)oc3cc(S(=O)(=O)N4CCC(C)CC4)ccc32)cc1C | inconclusive: 28.2 µM [inhibitor, single point] |  |
| COc1cc2nccc(Oc3ccc(NC(=O)NC4CC4)c(Cl)c3)c2cc1C(N)=O | active: 3.43 µM |  |
| COc1ccc(C(=O)NC(=S)NNC(=O)c2cnccn2)cc1OC | inconclusive: 22.4 µM [inhibitor, single point] |  |
| COC(CNC(=O)c1ccc2c3c(onc13)-c1ccccc1C2=O)OC | inconclusive: 25.1 µM [inhibitor, single point] |  |
| O=C(c1ccc(N2CCCC2)c([N+](=O)[O-])c1)N1CCN(CCO)CC1 |  | inactive: -2.56% |
| O=C(/C=C/c1ccc(F)cc1)Nc1ccc2[nH]c(=O)[nH]c2c1 |  | inactive: 2.65% |
| Cc1ccc(C)c(Cn2c(-c3cccs3)nc3ccccc32)c1 | inconclusive: 39.8 µM [inhibitor, single point] |  |
| CC(C)n1cc(CN2CCC(C(=O)Nc3ccc(Oc4ccccc4F)cc3)CC2)cn1 | inconclusive: 10 µM [inhibitor, partial curve] |  |
| CC(/C=N/NC(=O)c1ccc(Cn2cc([N+](=O)[O-])cn2)o1)=C\c1ccccc1 |  | inactive: 19.1% |
| CC1CCCC=CC2CC(OC(=O)CN(C)C)CC2C(O)C=CC(=O)O1 (stereo not given) | inconclusive: 6.31 µM [inhibitor, full curve, poor fit] |  |

| Structure (SMILES) | Potency | activity change, negative = inhibition |
| --- | --- | --- |
| COc1cc(NC(=O)c2ccccc2)c(OC)cc1NC(=O)CN1C(=O)NC2(CCCCC2C)C1=O (stereo not given) |  | inactive: -6.59% |
| CCC(=O)NC(c1ccco1)c1cc(Cl)c2cccnc2c1O (stereo not given) | inconclusive: 10 µM [inhibitor, partial curve, poor fit] |  |
| CCCCOc1ccc(C(=O)C(CN2CCOCC2)c2ccccc2)cc1 (stereo not given) | inconclusive: 39.8 µM [inhibitor, single point] |  |
| CCCNC(=O)c1ccc2nc(CCc3ccccc3)oc2c1 |  | inactive: 8.47% |
| CN(Cc1ccccc1)C(=O)c1ccc(Nc2nc(C(N)Cc3ccccc3)cs2)nc1 (stereo not given) | active: 14.1 µM |  |
| O=C1N(Cc2cccnc2)C[C@@H]2C[C@@H](c3cccc(Oc4ccccc4)c3)N3CCC[C@@]123 |  | inactive: -33.5% |
| O=C1NC(=O)c2c(NC(=O)C3CCCO3)cccc21 (stereo not given) |  | inactive: 2.74% |
| CC(C)(C)c1cc(Cl)ccc1OCCOCCN1CCCC1 | inconclusive: 10 µM [inhibitor, partial curve] |  |
| CN(C)C(=O)c1cccc(-c2cnc3c(NC=O)cc(-c4cccc(C(F)(F)F)c4)cn23)c1 | inconclusive: 31.6 µM [inhibitor, single point] |  |
| CCOC(=O)c1c(CN2CCN(Cc3ccccc3)CC2)n(C)c2cc(Br)c(OC)cc12 | inconclusive: 14.1 µM [inhibitor, partial curve] |  |
| CC(=O)N1CCc2c(sc3c2c(=O)n(CCc2ccccc2)c(=O)n3Cc2ccc(Cl)cc2)C1 | inconclusive: 39.8 µM [inhibitor, single point] |  |
| COC(=O)N[C@H](C(=O)N1CCC[C@@H]1c1ncc(-c2ccc(-c3ccc(-c4cnc([C@@H]5CCCN5C(=O)[C@@H](NC(=O)OC)C(C)C)[nH]4)cc3)cc2)[nH]1)C(C)C | inconclusive: 43.2 µM [inhibitor, single point] |  |
| O=C(NCc1ccccn1)[C@@H]1CCCN1C(=O)[C@@H]1CCCN1C(=O)c1cccs1 |  | inactive: -18.8% |
| CCCCc1ccc(NC(=O)c2ccc(=O)n(Cc3cccc(C)c3)c2)cc1 | inconclusive: 14.1 µM [inhibitor, partial curve] |  |
| NC(Cc1ccccc1)c1csc(Nc2ccc(C(F)(F)F)cn2)n1 (stereo not given) | inconclusive: 31.6 µM [inhibitor, single point] |  |
| COc1ccc(-c2nc(C)c(CCNS(=O)(=O)c3cc(C)c(C)cc3C)s2)cc1 | inconclusive: 39.8 µM [inhibitor, single point] |  |
| Cc1ccc(OCC(=O)NCCCNC(=O)c2cccnc2)cc1 |  | inactive: -7.96% |
| COc1cc2[nH]c(-c3ccc(C)cc3)cc(=O)c2cc1OC |  | inactive: 24.3% |
| CCCC[n+]1ccn(C2=C([O-])c3ccccc3C(=O)/C2=N\S(=O)(=O)c2ccc(Cl)cc2)c1 | inconclusive: 15.8 µM [inhibitor, partial curve, poor fit] |  |
| Cc1ccccc1Oc1ccc2c(c1)[C@@H]1C[C@H](N(C)C(=S)Nc3ccc(F)cc3)[C@H]([C@H](C)O)C(=O)N1CC2 | inconclusive: 22.4 µM [inhibitor, single point] |  |
| COCC(C)n1c(SCC(=O)N2CCCCC2)nc2ccccc2c1=O (stereo not given) |  | inactive: -0.19% |
